Experimental findings from the BET-seq Pho4 binding data (Le et al. 2018) are described below.

Some of the results follow. The energies were worked out here from pooled read counts, against the library average; single values are noisy.

The target of the assay is T1, Pho4 (S. cerevisiae) (UniProt P07270).
T1 sequence: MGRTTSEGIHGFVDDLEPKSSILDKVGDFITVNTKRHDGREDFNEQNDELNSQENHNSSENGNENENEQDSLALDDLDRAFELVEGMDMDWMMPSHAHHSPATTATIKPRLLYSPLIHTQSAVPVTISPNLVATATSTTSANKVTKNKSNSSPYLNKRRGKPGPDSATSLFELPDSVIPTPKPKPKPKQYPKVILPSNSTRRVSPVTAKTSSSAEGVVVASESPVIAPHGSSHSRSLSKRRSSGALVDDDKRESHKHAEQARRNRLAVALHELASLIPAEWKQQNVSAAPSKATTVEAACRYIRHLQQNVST
Briefly: relative binding free energy (BET-seq); higher = weaker binding. The conditions noted are these: reference: library average.
Take ATAGGCACGTGCAGGG: the “relative binding free energy” value was -0.21 kcal/mol. In the case of AATGTCACGTGTAAAT, the “relative binding free energy” value turned out to be 0.31 kcal/mol. Take TGTAGCACGTGACGTG: the “relative binding free energy” value is -0.03 kcal/mol. For CTGAACACGTGGGAGG, the “relative binding free energy” value is 0 kcal/mol. The value for ACGGACACGTGTATGT was 0.06 kcal/mol; that for TTGCGCACGTGATGGG was 0.12 kcal/mol; that for GAGAGCACGTGGCAGT was -0.07 kcal/mol. Take TATTACACGTGGTGTA: the “relative binding free energy” value was -0.05 kcal/mol. Consider CAGGGCACGTGGACGG, for which the “relative binding free energy” value was -0.08 kcal/mol. The value for GTCCGCACGTGTTGTT was -0.02 kcal/mol; that for TTACACACGTGAGTTG was 0.2 kcal/mol; that for TATGTCACGTGGGCCG was 0.12 kcal/mol. In the case of TTTAGCACGTGGAGCT, the “relative binding free energy” value was -0.08 kcal/mol.

As for ATGGACACGTGTCAGT, the “relative binding free energy” value is 0.03 kcal/mol. As for GGGGTCACGTGGCTGG, the “relative binding free energy” value was 0.14 kcal/mol. Turning to TATAGCACGTGGTGCG, the “relative binding free energy” value was -0.11 kcal/mol.

As to TGTAACACGTGTGAGC, the “relative binding free energy” value is 0.1 kcal/mol.

Take CTGATCACGTGGTTGT: the “relative binding free energy” value came out at 0.12 kcal/mol.

On to GTATACACGTGTCGGG, for which the “relative binding free energy” value came to 0.05 kcal/mol. With GTGAGCACGTGCTGTG, the “relative binding free energy” value is -0.17 kcal/mol. As for ACATTCACGTGGGGTT, the “relative binding free energy” value worked out at 0.14 kcal/mol. For TGAATCACGTGGGCGT the value was 0.09 kcal/mol; for CTTATCACGTGTTTAA, 0.03 kcal/mol; for GTTGGCACGTGTATCA, 0 kcal/mol. With GTATTCACGTGGTGCG, the “relative binding free energy” value stood at 0.24 kcal/mol.

AGGTACACGTGAGCGC: the “relative binding free energy” value turned out to be 0.36 kcal/mol. In the case of CGTGTCACGTGCTGTA, the “relative binding free energy” value came out at 0.12 kcal/mol. The value for GTGGTCACGTGGGTGT was -0.01 kcal/mol; that for GCGGACACGTGAAGGG was 0.35 kcal/mol. For GTACACACGTGATGGT the value was 0.24 kcal/mol; for GTTAACACGTGGAATG, 0.13 kcal/mol. For GGGTGCACGTGTTCGA the value was 0.04 kcal/mol; for AGTATCACGTGTAATA, 0.21 kcal/mol. On to GTTGACACGTGCTGTA, for which the “relative binding free energy” value is -0.04 kcal/mol. Regarding TTGTACACGTGGGGAC, the “relative binding free energy” value is -0.18 kcal/mol. Turning to GGGCGCACGTGGCAGG, the “relative binding free energy” value was -0.19 kcal/mol. Turning to GTGTCCACGTGGGCTT, the “relative binding free energy” value is -0.1 kcal/mol. Take TGCAGCACGTGTTAAT: the “relative binding free energy” value was -0.01 kcal/mol.

As to AGTGTCACGTGTCGTA, the “relative binding free energy” value came to 0.1 kcal/mol. The value for GTTTTCACGTGGCCGT was 0.26 kcal/mol; that for GAGTGCACGTGCGAGG was 0.08 kcal/mol; that for TAAAACACGTGGATGT was 0.04 kcal/mol. For GATAGCACGTGGTGCT, the “relative binding free energy” value is -0.04 kcal/mol. The value for TGTGACACGTGGCTCT was 0.09 kcal/mol. TAAGTCACGTGTAAAA: the “relative binding free energy” value amounted to 0.25 kcal/mol. As for GTATTCACGTGACTTT, the “relative binding free energy” value is 0.24 kcal/mol. For TGACTCACGTGGGTGG, the “relative binding free energy” value was -0.01 kcal/mol. Take TCTAGCACGTGTCGGG: the “relative binding free energy” value is -0.08 kcal/mol.

In the case of GGTGACACGTGTCGAT, the “relative binding free energy” value amounted to 0.09 kcal/mol. In the case of GTAAGCACGTGATGAG, the “relative binding free energy” value came to 0.12 kcal/mol. As for ACGGGCACGTGGAGTT, the “relative binding free energy” value is -0.03 kcal/mol. Take GTGTACACGTGAAAGG: the “relative binding free energy” value was found to be 0.19 kcal/mol. For the sequence TTTTGCACGTGCCAGT, the “relative binding free energy” value is -0.18 kcal/mol. Consider ATGCTCACGTGGTGTT, for which the “relative binding free energy” value is 0.18 kcal/mol. Take GGGTTCACGTGTTTAG: the “relative binding free energy” value was found to be 0.2 kcal/mol. For GTGTTCACGTGAGGTT, the “relative binding free energy” value worked out at 0.46 kcal/mol. As to ACGGTCACGTGTGGAT, the “relative binding free energy” value worked out at 0.21 kcal/mol. On to GTGTCCACGTGCTGTG, for which the “relative binding free energy” value is 0.16 kcal/mol. As for AATGTCACGTGATGTG, the “relative binding free energy” value stood at 0.15 kcal/mol. For ATAATCACGTGGGCGA the value was 0.11 kcal/mol; for TTCTGCACGTGTACGT, 0.05 kcal/mol; for ATATTCACGTGCGCGG, 0.13 kcal/mol. For CATTGCACGTGGAGTT, the “relative binding free energy” value is -0.02 kcal/mol.
